Drawing on the antibiotic and cytotoxicity screens of Wong et al. (2023), this text covers cytotoxicity call and growth inhibition call for 27 compounds.

One assay concerns HSkMC. The assay can be described thus: cytotoxicity call (relative viability < 0.9). The settings on record: 10 µM.
The next assay concerns HepG2. The assay can be described thus: cytotoxicity call (relative viability < 0.9). As to conditions: 10 µM.
A further assay concerns S. aureus RN4220. The assay can be described thus: growth inhibition call (relative growth <= 0.2). As to conditions: 50 µM.

Some of the results follow.

With `C[C@@H]1CN([C@H](C)CO)C(=O)c2cc(NC(=O)Nc3cccc4ccccc34)ccc2O[C@@H](C)CCCCO[C@@H]1CN(C)S(=O)(=O)c1ccc(Cl)cc1`, the cytotoxicity call in the assay with HSkMC and in the assay with HepG2 was “inactive” throughout. The growth inhibition call in the assay on S. aureus RN4220 was “inactive”.

Consider `COc1cc2c(cc1OC)CN(C(=O)[C@@H]1[C@H]3C(=O)O[C@H](c4ccccc4)[C@H](c4ccccc4)N3[C@H](c3ccc(OCCO)cc3)[C@@]13C(=O)Nc1ccc(C#CCCO)cc13)CC2`, for which the cytotoxicity call in the assay on HSkMC and in the assay with HepG2 was “inactive” in each case. In the assay with S. aureus RN4220, the growth inhibition call was “inactive”.

Regarding `CCOn1c(=O)c(=O)n(OC)c2ccccc21`, the cytotoxicity call with HSkMC and in the assay on HepG2 was “inactive” each time. In the assay with S. aureus RN4220, the growth inhibition call is “inactive”.

As to `NC(=O)C1CCNCC1`, the cytotoxicity call in the assay on HSkMC and with HepG2 was “inactive” each time. Moreover, the growth inhibition call in the assay with S. aureus RN4220 was “inactive”.

Take `CC#CC(=O)NS(=O)(=O)c1ccccc1`: the cytotoxicity call in the assay with HSkMC and in the assay on HepG2 was “inactive” in each case. Also, the growth inhibition call in the assay on S. aureus RN4220 is “inactive”.

With `O=C(C[C@@H]1CC=CC[C@@H](NC(=O)OCC2c3ccccc3-c3ccccc32)C(=O)OC[C@@H](Cc2c[nH]c3ccccc23)NC1=O)N[C@H](CO)Cc1ccccc1`, the cytotoxicity call in the assay on HSkMC and in the assay on HepG2 was “inactive” throughout. Further, the growth inhibition call in the assay with S. aureus RN4220 was “inactive”.

`C[C@H](CO)N1C[C@H](C)[C@H](CN(C)S(=O)(=O)c2ccccc2)Oc2ccc(NC(=O)C3CC3)cc2C1=O`: the cytotoxicity call with HSkMC and with HepG2 was “inactive” throughout. For the same compound, in the assay with S. aureus RN4220, the growth inhibition call was “inactive”.

On to `COc1cccc(S(=O)(=O)N(C)C[C@@H]2OCc3cn(nn3)CCCC(=O)N([C@H](C)CO)C[C@@H]2C)c1`, for which the cytotoxicity call with HSkMC and in the assay on HepG2 was “inactive” throughout. Also, the growth inhibition call in the assay on S. aureus RN4220 is “inactive”.

For the compound `C[C@@H]1CN([C@H](C)CO)C(=O)c2cc(NC(=O)CCC(F)(F)F)ccc2O[C@@H](C)CCCCO[C@@H]1CN(C)C(=O)C1CCCCC1`, the cytotoxicity call in the assay on HSkMC and in the assay on HepG2 was “inactive” throughout. Also, the growth inhibition call with S. aureus RN4220 was “inactive”.

Take `C[C@@H]1CCCCO[C@H](CN(C)CC2CCCCC2)[C@H](C)CN([C@@H](C)CO)C(=O)c2cc(NS(=O)(=O)c3ccc(Cl)cc3)ccc2O1`: the cytotoxicity call in the assay on HSkMC and in the assay with HepG2 was “active” each time. The growth inhibition call in the assay on S. aureus RN4220 was “inactive”.

For the compound `Cn1cnc(S(=O)(=O)N[C@H]2CC[C@H](CC(=O)Nc3ccccc3)O[C@@H]2CO)c1`, the cytotoxicity call in the assay with HSkMC and in the assay on HepG2 was “inactive” throughout. Moreover, the growth inhibition call in the assay on S. aureus RN4220 was “inactive”.

For the compound `C[C@@H]1CN([C@H](C)CO)S(=O)(=O)c2ccc(-c3ccncc3)cc2O[C@@H]1CN(C)C(=O)c1ccc2c(c1)OCO2`, the cytotoxicity call with HSkMC and in the assay on HepG2 was “inactive” throughout. Further, the growth inhibition call in the assay on S. aureus RN4220 is “inactive”.

Take `COc1ccc(NC(=O)N(C)C[C@H]2OCCCC[C@H](C)Oc3ccc(NS(=O)(=O)c4cccs4)cc3C(=O)N([C@@H](C)CO)C[C@H]2C)cc1`: the cytotoxicity call in the assay on HSkMC and with HepG2 was “inactive” in each case. In the assay with S. aureus RN4220, the growth inhibition call was “inactive”.

As for `Cc1ccc(S(=O)(=O)N(C)C[C@H]2Oc3ccc(NC(=O)c4ccncc4)cc3CC(=O)N([C@@H](C)CO)C[C@@H]2C)cc1`, the cytotoxicity call in the assay with HSkMC and with HepG2 was “inactive” each time. For the same compound, the growth inhibition call in the assay on S. aureus RN4220 was “inactive”.

Regarding `C[C@@H]1CN([C@@H](C)CO)S(=O)(=O)c2ccc(-c3cccc(F)c3)cc2O[C@H]1CN(C)S(C)(=O)=O`, the cytotoxicity call with HSkMC and with HepG2 was “inactive” each time. For the same compound, in the assay with S. aureus RN4220, the growth inhibition call was “inactive”.

Take `O=C(CCCCCNC(=O)OCc1ccc(CO[C@@H]2C[C@H](c3ccc(C(F)(F)F)cc3)C=C(C(=O)N3CCN(Cc4ccccc4)CC3)O2)cc1)NO`: the cytotoxicity call in the assay with HSkMC and in the assay on HepG2 was “inactive” in each case. Also, in the assay with S. aureus RN4220, the growth inhibition call is “inactive”.

On to `CC(C)CN(C[C@@H](O)[C@H](Cc1ccccc1)NC(=O)O[C@H]1CCOC1)S(=O)(=O)c1ccc(N)cc1`, for which the cytotoxicity call with HSkMC and in the assay on HepG2 was “inactive” throughout. Further, the growth inhibition call with S. aureus RN4220 is “inactive”.

Take `COCC(=O)N1CC[C@]2(CC1)CN([C@H](CO)c1c2c2ccc(cc2n1C)OC)C(=O)CN1CCOCC1`: the cytotoxicity call with HSkMC and in the assay on HepG2 was “inactive” throughout. Moreover, the growth inhibition call in the assay with S. aureus RN4220 was “inactive”.

Turning to `C=CCOC(=O)N(C)C[C@@H]1OCCCC[C@H](C)Oc2ccc(NC(=O)Nc3ccccc3)cc2C(=O)N([C@@H](C)CO)C[C@H]1C`, the cytotoxicity call with HSkMC and with HepG2 was “inactive” in each case. Besides, the growth inhibition call in the assay with S. aureus RN4220 was “inactive”.

Turning to `C[C@@H]1CCCCO[C@H](CN(C)S(=O)(=O)c2cn(C)cn2)[C@@H](C)CN([C@H](C)CO)C(=O)c2cc(NS(=O)(=O)c3cccs3)ccc2O1`, the cytotoxicity call in the assay on HSkMC and in the assay with HepG2 was “inactive” each time. In addition, the growth inhibition call with S. aureus RN4220 was “inactive”.

Turning to `Cc1ccc(S(=O)(=O)N(C)C[C@@H]2OCCCC[C@H](C)Oc3ccc(NC(=O)CCC(F)(F)F)cc3C(=O)N([C@H](C)CO)C[C@@H]2C)cc1`, the cytotoxicity call with HSkMC and in the assay on HepG2 was “inactive” in each case. For the same compound, the growth inhibition call in the assay on S. aureus RN4220 was “inactive”.

For `C[C@H]1CN([C@@H](C)CO)C(=O)c2cccc(NC(=O)C3CCCCC3)c2O[C@@H]1CN(C)Cc1ccc(Oc2ccccc2)cc1`, the cytotoxicity call in the assay on HSkMC and in the assay with HepG2 was “inactive” each time. In addition, the growth inhibition call in the assay on S. aureus RN4220 is “inactive”.

`CCNC(=O)C[C@H]1C=C[C@H](NC(=O)C2CCOCC2)[C@H](CO)O1`: the cytotoxicity call with HSkMC and with HepG2 was “inactive” in each case. Moreover, in the assay on S. aureus RN4220, the growth inhibition call was “inactive”.

Turning to `C[C@@H]1CN([C@H](C)CO)C(=O)Cc2cc(NS(C)(=O)=O)ccc2O[C@H]1CN(C)C(=O)Nc1ccc(C(F)(F)F)cc1`, the cytotoxicity call with HSkMC and in the assay on HepG2 was “inactive” in each case. Further, in the assay with S. aureus RN4220, the growth inhibition call is “inactive”.

Take `C[C@@H]1CCCCO[C@H](CN(C)C(=O)Cc2ccccc2)[C@@H](C)CN([C@@H](C)CO)C(=O)c2cc(NC(=O)Nc3ccc(F)cc3)ccc2O1`: the cytotoxicity call in the assay on HSkMC (human skeletal muscle cells) and in the assay with HepG2 was “inactive” in each case. The growth inhibition call with S. aureus RN4220 is “inactive”.

Consider `C[C@@H]1CN([C@@H](C)CO)S(=O)(=O)c2ccc(Br)cc2O[C@@H]1CN(C)S(=O)(=O)c1cn(C)cn1`, for which the cytotoxicity call with HSkMC and in the assay on HepG2 was “inactive” in each case. Also, the growth inhibition call with S. aureus RN4220 was “inactive”.

With `C[C@@H]1CN([C@H](C)CO)C(=O)Cc2cc(NC(=O)CCN3CCOCC3)ccc2O[C@@H]1CN(C)Cc1ccc(C(=O)Nc2ccccc2N)cc1`, the cytotoxicity call in the assay with HSkMC and in the assay with HepG2 was “inactive” throughout. Also, in the assay with S. aureus RN4220, the growth inhibition call was “inactive”.
